Measured values from PubChem BioAssay AID2060908 (Molecular Pharmacology Branch, DTP, NCI, 2025).
Some entries of the source have several records that differ or are many. The list is limited to them. The source may hold further records. Results that share an entry repeat one measurement across runs, samples, wells, individuals or studies. Counts like (3×) count equal records among those shown. Dates in brackets are months of testing.

Tested on: 186277-243-T-J2-PDC complex spheroids, viability
Test: Anticancer human tumor 186277-243-T-J2-PDC patient-derived colon adenocarcinoma cell line growth inhibition [RAS]
Conditions: for IC50: compound alone; for viability, T/C: stronger effect = lower value
Text: RAS pathway inhibitors in Combinations in Complex Spheroids
A high-throughput screen of multi-cell type tumor spheroids was designed to identify active combinations of RAS pathway inhibitors and targeted small molecules. Complex spheroids include a stromal component modeled by human endothelial cells (HUVEC) and fibroblasts modeled by human mesenchymal stem cells (MSCs). The concentration ranges selected for each drug and investigational agent were based upon clinically achievable concentrations if the clinical Cmax of the agent was known.
Compounds. The drugs and investigational agents: abemaciclib (NSC768073), cobimetinib (NSC768068), divarasib (GDC6063, NSC841802), docetaxel (NSC628503), GDC-1971 (RLY-1971, NSC841576), gemcitabine (NSC613327), inavolisib (NSC800729), ipatasertib (NSC767898), KB-0742 (NSC834161), MRTX-1133 (NSC836407), osimertinib (NSC779217), RMC-4630 (NSC839698), RMC-6236 (NSC851965), RMC-6291 (NSC852671), Ro-3306 (NSC812927), sapanisertib (NSC764658), SN-38 (NSC673596), staurosporine (NSC755774), SY5609 (NSC837396), and tovorafenib (DAY101, NSC766906), were obtained from the National Cancer Institute (NCI) Developmental Therapeutics Program Chemical Repository. The FDA-approved anticancer drug set is available from the NCI Developmental Therapeutics Program. […] The stock solutions were prepared in dimethyl sulfoxide (DMSO, Sigma-Aldrich, St. Louis, MO, cat. D2650) at 800-fold the tested concentration and stored at -70 degrees C prior to their use. All drugs and investigational agents were tested over a range starting from a high concentration at or near the clinical Cmax and decreasing in half-log increments. If the clinical Cmax for an agent had not been determined, the highest concentration tested was 10 microM.
Cell Culture. All cells were maintained in an incubator at 37 degrees C and 5% CO2 with 95% humidity. The PDC lines were cultured according to standard operating procedures established by the NCI PDMR. All PDCs were thawed and cultured in Matrigel-coated flasks prepared with a working solution of 1X Ham's F-12 nutrient mix, without supplementation (Invitrogen, Waltham, MA, cat. 11765054), 100 U/mL penicillin-streptomycin (Invitrogen, cat. 15140122), and 2.5% Matrigel (Corning Inc., Corning, NY, cat. 354248) for the first three passages. The 362531-283-R-J2-PDC and 782815-120-R-J1-PDC lines were cultured in 6C/Colon 1B media, which includes advanced DMEM/F-12 (Thermo Fisher Scientific, cat. 12634028), 10 mM HEPES (Thermo Fisher Scientific, cat. 15630080), 1X GlutaMAX supplement (Thermo Fisher Scientific, cat. 35050061), 0.1 mg/mL primocin (InvivoGen, San Diego, CA, cat. ant-pm-2), 10% defined fetal bovine serum, heat inactivated (HyClone Laboratories Inc., Logan, UT, cat. SH30070.03HI), 50% L-WRN conditioned media (ATCC, cat. CRL-3276), 1.25 mM N-Acetyl-L-cysteine (Sigma-Aldrich, cat. A9165), 10 mM nicotinamide (Sigma-Aldrich, cat. N0636), 1X B-27 supplement (Thermo Fisher Scientific, cat. 17504044), 1X N-2 supplement (Thermo Fisher Scientific, cat. 17502048), 50 ng/mL human EGF (Thermo Fisher Scientific, cat. PHG0311), and 10 microM Y-27632 dihydrochloride (Tocris Bioscience, cat. 1254). The K12877-001-R-J1-PDC line was cultured in 6I media, which includes all 6C/Colon 1B media plus 10 ng/mL human FGF-10 (PeproTech, cat. 100-26), 1 ng/mL human FGF-2 (PeproTech, cat. 100-18B), 1 µM prostaglandin E2 (Tocris Bioscience, cat. 2296), […] hydrocortisone (Sigma-Aldrich, cat. H4001), and […] bovine insulin (Sigma-Aldrich, cat. I6634). The K86415-001-R-J1-PDC line was cultured in 6D media, which includes all 6C/Colon 1B media components minus the L-WRN conditioned media. The 485176-168-R4-J1-PDC was cultured in PANC media, which includes all 6C/Colon 1B media plus 100 ng/mL human FGF-10 (PeproTech, cat. 100-26), 500 nM SB-431542 (Selleckchem, cat. S1067), and 10 nM gastrin (Tocris Bioscience, cat. 3006). […]
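Further: spheroids exposed to compounds for 7 days before viability read.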

CCc1c2c(nc3ccc(O)cc13)-c1cc3c(c(=O)n1C2)COC(=O)[C@]3(O)CC
IC50: 9.34 nM, 12.7 nM [2024-05] and 29.8 nM, 24.2 nM [2024-06]
viability, T/C (compound alone 0.000949 µM): 135%, 119% [2024-05] and 101%, 123% [2024-06]
viability, T/C (compound alone 0.003 µM): 74.5%, 81.3% [2024-05] and 108%, 99.2% [2024-06]

C=CC(=O)N1CCN(c2nc(OCC3CCCN3C)nc3c(F)c(-c4nc(N)cc(C)c4C(F)(F)F)c(Cl)cc23)C(C)C1 (stereo not given)
viability, T/C (compound alone 0.00316 µM): 93.2%, 107% [2024-05] and 98.3, 107, 93.5, 91.7, 83.7, 91.8, 92.2, 116, 109, 97.5% [2024-06]
viability, T/C (compound alone 0.01 µM): 93.6%, 70.9% [2024-05] and 96.3, 85.9, 95.8, 110, 93.3, 99, 100, 98.7, 88.1, 97.2% [2024-06]
viability, T/C (compound alone 0.1 µM): 93.3%, 89.7% [2024-05] and 108 (2×), 110, 113, 78.2, 94, 96, 102, 90.8, 111% [2024-06]
viability, T/C (compound alone 0.316 µM): 94.5%, 99.2% [2024-05] and 82.5, 114 (2×), 84.5, 95.9, 101, 93.1, 105, 88.4, 106% [2024-06]
viability, T/C (compound alone 1 µM): 107%, 92% [2024-05] and 111 (2×), 82.9, 85.3, 106, 93, 101, 108, 98.5, 104% [2024-06]

CC1(O)CCCC1n1c(=O)c(C(F)F)cc2cnc(NC3CCN(S(C)(=O)=O)CC3)nc21 (stereo not given)
viability, T/C (compound alone 0.316 µM): 114%, 124% [2024-05] and 96.5%, 92.7% [2024-06]
viability, T/C (compound alone 1 µM): 87.2%, 108% [2024-05] and 81.9%, 80% [2024-06]

CCn1c(-c2cccnc2C(C)OC)c2c3cc(ccc31)N1CCOC(CC(NC(=O)C(C(C)C)N(C)C(=O)C3(F)CCN(C(=O)C#CC(C)(C)N(C)C)CC3)C(=O)N3CCCC(N3)C(=O)OCC(C)(C)C2)C1 (stereo not given)
viability, T/C (compound alone 0.00949 µM): 92.9, 97, 105, 92.2, 108, 116, 88.4, 100%
viability, T/C (compound alone 0.0949 µM): 94.9, 100 (2×), 114, 95.2, 118, 91.9, 104%

CCN1CCN(Cc2ccc(Nc3ncc(F)c(-c4cc(F)c5nc(C)n(C(C)C)c5c4)n3)nc2)CC1
viability, T/C (compound alone 0.00316 µM): 92.2%, 95.6% [2024-05] and 122%, 127% [2024-06]
viability, T/C (compound alone 0.0316 µM): 140%, 114% [2024-05] and 128%, 134% [2024-06]
viability, T/C (compound alone 0.316 µM): 175%, 156% [2024-05] and 107%, 134% [2024-06]
viability, T/C (compound alone 1 µM): 123%, 125% [2024-05] and 92.9%, 102% [2024-06]

NC1c2ccccc2OC12CCN(c1cnc3c(N4CCCc5ncccc54)n[nH]c3n1)CC2 (stereo not given)
viability, T/C (compound alone 0.0316 µM): 93.3%, 95.3% [2024-05] and 124%, 99.7% [2024-06]
viability, T/C (compound alone 0.1 µM): 78.1%, 104% [2024-05] and 91.4%, 114% [2024-06]
viability, T/C (compound alone 1 µM): 118%, 125% [2024-05] and 84.2%, 77% [2024-06]
viability, T/C (compound alone 3.16 µM): 100%, 107% [2024-05] and 105%, 73.8% [2024-06]

Cc1nc(N2CCC3(CC2)COC(C)C3N)c(CO)nc1Sc1ccnc(N)c1Cl (stereo not given)
viability, T/C (compound alone 0.1 µM): 119%, 95.6% [2024-05] and 98.1%, 93% [2024-06]
viability, T/C (compound alone 10 µM): 143%, 124% [2024-05] and 92.8%, 82.2% [2024-06]

CC(C)n1nc(-c2ccc3oc(N)nc3c2)c2c(N)ncnc21
IC50: 57.4 nM, 49.1 nM [2024-05] and > 100 nM, 96 nM [2024-06]
viability, T/C (compound alone 0.0316 µM): 66.6%, 60.3% [2024-05] and 87.7%, 100% [2024-06]

CC1(C)CCC(Nc2ncc(C(F)(F)F)c(-c3c[nH]c4c(P(C)(C)=O)c(C#N)ccc34)n2)CN1 (stereo not given)
viability, T/C (compound alone 0.03 µM): 80.8%, 87.7% [2024-05] and 61.1%, 73.1% [2024-06]

C=CC(=O)Nc1cc(Nc2nccc(-c3cn(C)c4ccccc34)n2)c(OC)cc1N(C)CCN(C)C
viability, T/C (compound alone 0.01 µM): 95.3%, 98% [2024-05] and 70.1%, 92.9% [2024-06]
viability, T/C (compound alone 1 µM): 82.7%, 92.6% [2024-05] and 80.5%, 106% [2024-06]

CCn1c(-c2cc(N3CCN(C)CC3)cnc2C(C)OC)c2c3cc(ccc31)-c1csc(n1)CC(NC(=O)C1CC1C)C(=O)N1CCCC(N1)C(=O)OCC(C)(C)C2 (stereo not given)
viability, T/C (compound alone 0.003 µM): 109, 103, 96.8, 102, 85.5, 105, 113, 100%

CC(Nc1ccc2c(c1)OCCn1cc(N3C(=O)OCC3C(F)F)nc1-2)C(N)=O (stereo not given)
IC50: 5.98 µM, 1.22 µM [2024-05] and 728 nM, 823 nM [2024-06]
viability, T/C (compound alone 3.16 µM): 98.3%, 37.6% [2024-05] and 29.6%, 36.3% [2024-06]
